In the supplement of paper PMC4604168 (melanoma cell lines):
The list shows a part of the results. Many values rest on one well or one pass, so single values are uncertain.

Columns and labels:
Experiment in all cases: cell count relative to DMSO control; melanoma cells; higher = more viable cells
Details in all cases: library dose: standard library concentration; 72 h
A101D = system: A101D
A2058 = system: A2058
A375 = system: A375
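Note: cells treated in 1,536-well plates, then fixed and DAPI-stained, with nuclei counted from automated high-throughput microscope images.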

| Structure (SMILES) | cell count (A101D) [%] | cell count (A2058) [%] | cell count (A375) [%] |
| --- | --- | --- | --- |
| Cc1cc(Nc2cc(N3CCN(C)CC3)nc(/C=C/c3ccccc3)n2)n[nH]1 + Cc1nc(Nc2ncc(C(=O)Nc3c(C)cccc3Cl)s2)cc(N2CCN(CCO)CC2)n1 [dasatanib] (first compound 0.2 µM, partner dose 0.02 µM) | 67.6 | 78.7 | 64.3 |
| CC(C)C[C@H](NC(=O)[C@H](Cc1ccccc1)NC(=O)c1cnccn1)B(O)O [Bortezomib] + C#Cc1cccc(Nc2ncnc3cc(OCCOC)c(OCCOC)cc23)c1 [erlotinib] (first compound 0.005 µM, partner dose 4 µM) | 15.9 | 10.1 | 93 |
| Cn1c(=O)n(-c2ccc(C(C)(C)C#N)cc2)c2c3cc(-c4cnc5ccccc5c4)ccc3ncc21 + O=C(Nc1cccc(Cl)c1)Nc1ncc(CCNc2ncnc3ccsc23)s1 [SNS314] (first compound 0.02 µM, partner dose 0.004 µM) | 72.4 | 68.1 | 64 |
| Cc1cc(Nc2cc(N3CCN(C)CC3)nc(/C=C/c3ccccc3)n2)n[nH]1 + CC1(C)NC(=O)N(c2ccc([N+](=O)[O-])c(C(F)(F)F)c2)C1=O [nilutamide] (first compound 0.2 µM, partner dose 5 µM) | 78.6 | 80.2 | 75.7 |
| CC(C)C[C@H](NC(=O)[C@H](Cc1ccccc1)NC(=O)c1cnccn1)B(O)O [Bortezomib] + C=CCNC1=C2C[C@@H](C)C[C@H](OC)[C@H](O)[C@@H](C)/C=C(\C)[C@H](OC(N)=O)[C@@H](OC)/C=C\C=C(/C)C(=O)NC(=CC1=O)C2=O [Tanespimycin] (first compound 0.005 µM, partner dose 0.01 µM) | 24.7 | 12.9 | 98.6 |
| Cc1cn(-c2cc(NC(=O)c3ccc(C)c(Nc4nccc(-c5cccnc5)n4)c3)cc(C(F)(F)F)c2)cn1 [nilotinib] + CS(=O)(=O)c1ccc(C(=O)Nc2ccc(Cl)c(-c3ccccn3)c2)c(Cl)c1 [vismodegib] (first compound 1 µM, partner dose 5 µM) | 98.6 | 123 | 159 |
| Cc1cn(-c2cc(NC(=O)c3ccc(C)c(Nc4nccc(-c5cccnc5)n4)c3)cc(C(F)(F)F)c2)cn1 [nilotinib] + CN1CCN(c2ccc3nc(-c4c(N)c5c(F)cccc5[nH]c4=O)[nH]c3c2)CC1 [Dovitinib] (first compound 1 µM, partner dose 0.5 µM) | 68.1 | 55.3 | 92.3 |
| COc1ccc(C2=N[C@@H](c3ccc(Cl)cc3)[C@@H](c3ccc(Cl)cc3)N2C(=O)N2CCNC(=O)C2)c(OC(C)C)c1 [Nutlin-3] + OCc1c[nH]c2ccccc12 [Indole-3-carbinol] (first compound 0.5 µM, partner dose 4 µM) | 75.3 | 112 | 91 |
| CC(C)C[C@H](NC(=O)[C@H](Cc1ccccc1)NC(=O)c1cnccn1)B(O)O [Bortezomib] + OCc1c[nH]c2ccccc12 [Indole-3-carbinol] (first compound 0.005 µM, partner dose 4 µM) | 11.9 | 10.3 | 70.3 |
| Cc1cc(Nc2cc(N3CCN(C)CC3)nc(/C=C/c3ccccc3)n2)n[nH]1 + C[C@]1(c2nc3c(C(N)=O)cccc3[nH]2)CCCN1 [Veliparib] (first compound 0.2 µM, partner dose 7 µM) | 79.3 | 73 | 106 |
| Cc1cc(Nc2cc(N3CCN(C)CC3)nc(/C=C/c3ccccc3)n2)n[nH]1 + COc1cc2c(Oc3ccc4[nH]c(C)cc4c3F)ncnc2cc1OCCCN1CCCC1 [cediranib] (first compound 0.2 µM, partner dose 2 µM) | 73.8 | 75.5 | 112 |
| Cn1c(=O)n(-c2ccc(C(C)(C)C#N)cc2)c2c3cc(-c4cnc5ccccc5c4)ccc3ncc21 + O=C(O)c1ccc(-c2c[nH]c3ncc(-c4ccccc4)cc23)cc1C1CCCC1 [GSK650394] (first compound 0.02 µM, partner dose 0.8 µM) | 69.7 | 48.8 | 78.8 |
| Cc1cn(-c2cc(NC(=O)c3ccc(C)c(Nc4nccc(-c5cccnc5)n4)c3)cc(C(F)(F)F)c2)cn1 [nilotinib] + C[C@]1(c2nc3c(C(N)=O)cccc3[nH]2)CCCN1 [Veliparib] (first compound 1 µM, partner dose 7 µM) | 96.3 | 79 | 88.3 |
